Results: paper PMC4336329 (PLoS ONE, 2015)
In all, about 310,000 compounds went through this assay and about 2,200 (0.71%) showed an effect of 50% or more. The effect is printed as a negative number. Some of the results follow.

molecular target: human ether-à-go-go-related gene (hERG) potassium channel (human, UniProt Q12809); experiment: primary screen, population patch clamp on CHO cells stably expressing hERG
Sequence (Q12809 whole entry, looked up): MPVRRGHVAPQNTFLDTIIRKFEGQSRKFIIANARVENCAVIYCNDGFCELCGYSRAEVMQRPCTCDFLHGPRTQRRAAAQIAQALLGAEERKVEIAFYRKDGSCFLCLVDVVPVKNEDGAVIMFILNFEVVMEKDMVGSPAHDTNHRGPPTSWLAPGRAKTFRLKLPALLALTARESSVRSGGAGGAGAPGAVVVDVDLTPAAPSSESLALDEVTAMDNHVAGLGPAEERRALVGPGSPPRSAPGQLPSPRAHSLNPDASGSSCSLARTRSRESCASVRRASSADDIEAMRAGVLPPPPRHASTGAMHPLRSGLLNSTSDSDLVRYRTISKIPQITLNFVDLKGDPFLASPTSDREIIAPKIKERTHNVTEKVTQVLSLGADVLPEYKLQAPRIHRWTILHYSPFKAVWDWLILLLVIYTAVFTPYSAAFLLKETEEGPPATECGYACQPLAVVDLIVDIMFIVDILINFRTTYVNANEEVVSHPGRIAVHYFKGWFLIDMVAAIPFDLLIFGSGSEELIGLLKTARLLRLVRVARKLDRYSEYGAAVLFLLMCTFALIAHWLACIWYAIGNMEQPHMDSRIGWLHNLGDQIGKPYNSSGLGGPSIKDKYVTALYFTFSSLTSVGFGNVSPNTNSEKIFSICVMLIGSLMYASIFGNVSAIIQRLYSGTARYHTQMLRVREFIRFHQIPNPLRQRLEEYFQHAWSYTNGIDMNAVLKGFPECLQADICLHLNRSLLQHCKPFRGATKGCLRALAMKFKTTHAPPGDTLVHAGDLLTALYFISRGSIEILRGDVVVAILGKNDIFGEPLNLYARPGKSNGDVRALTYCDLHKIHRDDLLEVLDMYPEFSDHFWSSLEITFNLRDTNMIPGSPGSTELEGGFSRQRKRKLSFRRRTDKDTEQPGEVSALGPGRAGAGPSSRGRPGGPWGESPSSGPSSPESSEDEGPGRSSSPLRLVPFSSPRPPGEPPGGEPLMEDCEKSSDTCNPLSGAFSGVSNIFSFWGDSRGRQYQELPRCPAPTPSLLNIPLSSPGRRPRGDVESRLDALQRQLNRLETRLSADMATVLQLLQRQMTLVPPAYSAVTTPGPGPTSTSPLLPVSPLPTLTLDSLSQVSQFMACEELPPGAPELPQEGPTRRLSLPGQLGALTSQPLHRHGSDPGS

Row | SMILES | hERG current change (%, negative = inhibition) at 1uM [%]
1 | COc1ccc(NC(=O)CSc2nnc(-c3cccnc3)o2)c(OC)c1 | 3.45
2 | COc1ccc(C(=O)NNC(=O)CNC(=O)C2CCCCC2)cc1 | 21.1
3 | Cc1ccccc1OCC(=O)NCC(C)(C)N1CCOCC1 | 10.3
4 | CCN(CC)CCCNC(=O)C1CCC(CNS(=O)(=O)c2c(C)cc(C)cc2C)CC1 (stereo not shown) | 12.6
5 | COC(=O)c1ccc(S(=O)(=O)N2CCC(c3nc4ccccc4o3)CC2)cc1 | 10.9
6 | COC(=O)Nc1sc2c(c1C(=O)NCc1ccco1)CCC2 | -9.93
7 | COc1ccc(N(C(=O)c2cccc(OC)c2OC)C2C=CS(=O)(=O)C2)cc1 (stereo not shown) | 8.3
8 | O=C(Nc1ccccc1Br)c1ccc2nccnc2c1 | 8.66
9 | C/C=C/C(=O)Nc1cccc(C2=NOC3(C2)C[C@@H](C(N)=O)N(C(=O)c2cc([N+](=O)[O-])cc([N+](=O)[O-])c2C)C3)c1 (stereo partly shown) | 5.35
10 | O=[N+]([O-])c1ccc(N(CC(O)CN2CCCCC2)S(=O)(=O)c2ccccc2)cc1 (stereo not shown) | -79.5
11 | CCCCCc1cc(=O)oc2c(C(CCN3CCCC3)c3cc(OC)c(OC)c(OC)c3)c(OC)cc(OC)c12 (stereo not shown) | -29.8
12 | COC(=O)c1cccc(Cn2c(Cl)c(/C=N/NC(=O)c3ccccc3Cl)sc2=O)c1 | 8.95
13 | CCOC(=O)c1c(C)nc2ccc(Cl)cc2c1-c1ccccc1 | 8.88
14 | COc1ccc(Cc2nc3ccc(S(=O)(=O)N4CCOCC4)cc3[nH]2)cc1 | 11.8
15 | COc1ccc(/C(C#N)=C/c2ccccn2)cc1 | 11.1
16 | S=c1nc(-c2ccco2)[nH][nH]1 | 10.7
17 | Clc1ccc(-c2nc(-c3cc4cc(Cl)ccc4o3)cs2)cc1 | 10.4
18 | CN1CCc2nc(SCc3ccc(Cl)cc3)c(C#N)c(-c3cccs3)c2C1 | -16.5
19 | CNc1oc(-c2cccc3ccccc23)nc1C#N | 14.6
20 | Cc1c(N=C(N)/N=C(\N)Nc2ccc(Br)cc2)c(=O)n(-c2ccccc2)n1C | 14.8
21 | CCn1cc(C(=O)NCCC(=O)OC)c(=O)c2cc3c(cc21)OCO3 | 7.57
22 | CC1C(=O)N2CCCc3cc(NC(=O)CC(C)(C)C)cc1c32 (stereo not shown) | 3.27

Row | SMILES | hERG current change (%, negative = inhibition) at 1uM [%]
23 | CCCOc1ccc(/C=c2\sc3ncnn3c2=O)cc1 | 14
24 | O=C(COc1ccccc1[N+](=O)[O-])Nc1ccccc1N1CCCC1 | 2.4
25 | Cn1cncc1C#Cc1ccc2cc(CCO)oc(=O)c2c1 | 6.29
26 | CC(Sc1nnnn1C)C(=O)Nc1ccc(N2CCOCC2)cc1 (stereo not shown) | -3.54
27 | CCOC(=O)C1(CCOc2ccccc2)CCN(Cc2cnc(C)[nH]2)CC1 | -17.3
28 | COc1ccc(C2/C=C\CN(C(=O)NC34CC5CC(CC(C5)C3)C4)CC(=O)N2Cc2ccc(F)cc2)cc1 (stereo not shown) | 6.28
29 | COc1ccc(C)cc1NC1=C(Cl)C(=O)N(C2CCCCC2)C1=O | -4.7
30 | COc1cccc(NC(=O)CN(C)C(=O)CSCc2nc3scc(-c4cccs4)c3c(=O)[nH]2)c1 | 5.99
31 | Cc1c(Cl)cccc1NC(=S)N(Cc1ccco1)C(C)c1ccccn1 (stereo not shown) | 5.44
32 | O=C(CC1CCCC1)Nc1cccc(Br)c1 | 13.9
33 | COc1ccc(NC(=O)C2CCCN(S(=O)(=O)c3ccc(-n4cnnn4)cc3)C2)cc1 (stereo not shown) | 15.5
34 | CC1CCC(NC(=O)c2ccc(NS(=O)(=O)c3ccc4[nH]c(=O)[nH]c4c3)cc2)CC1 (stereo not shown) | 9.16
35 | COC(=O)c1cc2c(cc1NC(=O)CSCCc1ccccn1)OCO2 | 14.4
36 | COc1cccc(NC(=O)Cc2nnc(SCC(=O)NC3=NCCS3)n2C)c1 | 18.2
37 | COc1cnn(-c2cc(Oc3ccc(C)cc3)ncn2)c(=O)c1Cl | 8.54
38 | CNc1nc2sc3c(c2c(=O)n1C)CC(C)(C)SC3 | -5.36
39 | COc1ccc(C(C)=O)cc1CSc1nnc(Nc2ccccc2C)s1 | 2.94
40 | Cn1c(/C=C/c2ccccc2)nc2ccccc21 | 6.75
41 | CN1CCN(C(=O)c2ccc(C3SCC(=O)N3Cc3ccco3)cc2)CC1 (stereo not shown) | 7.77
42 | CC1CCN(CC(=O)Nc2cc(C(F)(F)F)ccc2Cl)CC1 | 14.6
43 | Cc1ccc(C(=O)CCC(=O)Nc2ncccc2C)cc1 | 14.2
44 | Cc1ccc(C)c(Cn2c(=O)n(CCC(=O)NCc3ccco3)c(=O)c3sccc32)c1 | 5.9

Row | SMILES | hERG current change (%, negative = inhibition) at 1uM [%]
45 | CCc1sc(C(=O)Nc2cc(S(=O)(=O)N3CCOCC3)ccc2OC)cc1C | 8.49
46 | COc1ccccc1CNC(=O)CN1C(=O)c2ccccc2S1(=O)=O | 15.9
47 | CCn1c(SCC(=O)N=Nc2c(O)[nH]c3ccccc23)nc2ccccc21 | 9.85
48 | COc1ccc2ccccc2c1C(=O)/C=C\c1ccoc1 | 7.74
49 | Cc1c(C(=O)N(C)Cc2ccccc2)oc2ccc(S(=O)(=O)N3CCCC3)cc12 | -0.449
50 | Cc1nc2nc(NC(=O)c3ccco3)nn2c(C)c1Cl | 7.57
51 | COc1ccc(Br)c(C(=O)Nn2c(C)nc3ccccc3c2=O)c1 | 2.6
52 | COc1ccc(OC)c2c(=O)cc(C(=O)O)[nH]c12 | 10.4
53 | CCc1cc2c(=O)[nH]c(-c3ccccn3)nc2s1 | 3.97
54 | S=C(Nc1ccc(Nc2ccccc2)cc1)NC1CCCCCC1 | 5.25
55 | O=C(COc1ccc(Cl)cc1)NCc1nnc(SCC(=O)Nc2ccccc2F)o1 | 1.62
56 | Cc1c(C(=O)N/N=C/c2ccc(Cl)cc2)[nH]c2ccc(Cl)cc12 | 20
57 | Cc1cc(C)cc(N=C2SC(CC(=O)Nc3ccccc3)C(=O)N2CCN2CCOCC2)c1 (stereo not shown) | 10.3
58 | COc1cc2c(cc1OC)C(C(=O)N(C)C1CCCCC1)C1CCCCN1C2=O (stereo not shown) | 4.16
59 | O=C(N/N=C/c1ccc(O)c(O)c1)C1CC1 | 4.2
60 | Cc1ccc(C(=O)NCC(=O)OCc2c(F)cccc2Cl)cc1 | 19.9
61 | COc1ccc(S(=O)(=O)Nc2ccccc2)cc1OC | -10.3
62 | COc1ccc(C(=O)COC(=O)c2cccc(-n3cnnn3)c2)c(OC)c1 | 11.9
63 | COc1cc(CNCc2ccccn2)ccc1OCc1ccc(Cl)cc1Cl.Cl | -7.13
64 | COc1ccc(SC[C@H](C)CN2CC[C@H](C(C)(C)C)CCC2=O)cc1 | 12.6
65 | Cc1onc(-c2ccccc2Cl)c1C(=O)N(C)Cc1ccccc1 | 12.4
66 | Cc1cc(OCc2cc(C(=O)O)oc2C)c2c3c(c(=O)oc2c1)CCCC3 | 9.46

Row | SMILES | hERG current change (%, negative = inhibition) at 1uM [%]
67 | CCOc1ccc(S(=O)(=O)N2CCC(C(=O)NCC(=O)Nc3cccc(Cl)c3C)CC2)cc1 | -7.93
68 | Cc1ccc(Cn2c(C(C)Nc3nc(-c4ccc(C)cc4)cs3)nc3cc(Cl)c(Cl)cc32)cc1 (stereo not shown) | -7.77
69 | Cc1ccc(NC(=O)CN(C)CC(=O)Nc2ccc(F)c(F)c2F)c(Cl)c1 | 8.21
70 | CC(C)OCCCNC1=C(Cl)C(=O)c2ccccc2C1=O | 12.4
71 | COC(=O)c1c(-c2c(Cl)cccc2Cl)noc1C(=O)NN | 12.5
72 | Cc1ccc(NC(=O)C(C)OC(=O)Cc2c[nH]c3ccccc23)cc1S(=O)(=O)N1CCOCC1 (stereo not shown) | 1.71
73 | CCOc1cc(C(=O)OCc2ccc(OC)cc2)ccc1OCC(=O)N1CCOCC1 | 10.3
74 | CCOC(=O)c1cc(-c2ccc3c(c2)OCCO3)n[nH]1 | 28.2
75 | Cc1cc(Nc2ccccc2)nc2cc(O)ccc12 | 6.45
76 | Brc1ccc(-c2csc3[n+]2CCCCC3)cc1.[Br-] | 1.01
77 | CC(=O)N1c2ccc(S(=O)(=O)N3CCCC3)cc2CC1C(=O)NCc1ccc(N(C)C)cc1 (stereo not shown) | 4.54
78 | O=C(O)C1=C[C@H](c2coc3ccccc3c2=O)C[C@H](OCc2ccc(CO)cc2)O1 | 10.4
79 | CC(=O)Nc1ccc(Oc2ccc([N+](=O)[O-])cc2Cl)cc1 | 13
80 | COC(=O)c1cc(S(=O)(=O)N2c3ccccc3CC2C)cn1C (stereo not shown) | 16.1
81 | Cc1cc(NC(=O)c2cc(-c3ccc(OC(C)C)cc3)nc3ccccc23)no1 | 15.4
82 | CCO/N=C/c1ccc(OC)c(Oc2nc(OC)cc(OC)n2)c1 | 5.85
83 | CC1=C(C(=O)NCCN2CCOCC2)C2(CCC(C)CC2)OC1=O (stereo not shown) | 14.9
84 | CCOC(=O)N1CCN(S(=O)(=O)CCNC(=O)c2ccccc2)CC1 | 9.23
85 | COC(=O)C1CC(c2ccc(Cl)cc2)=NO1 (stereo not shown) | 2.86
86 | CC(=O)c1ccc(O)c(CSc2nncn2C)c1 | 9.44
87 | COc1cccc(/C(O)=C2/C(=O)C(=O)N(CCN3CCOCC3)C2c2cccs2)c1 (stereo not shown) | 10.7
88 | O=C(CCN1C(=O)COc2ccccc21)NCCN1CCN(c2cccc(Cl)c2)CC1 | -14.6
